Paper PMC6804450 (Acta Pharmaceutica Sinica. B, 2019)

Target: 7H9 scFv-Fc fusion
Assay: ELISA

7H9 scFv-Fc fusion, sequence (Q16552 24-155): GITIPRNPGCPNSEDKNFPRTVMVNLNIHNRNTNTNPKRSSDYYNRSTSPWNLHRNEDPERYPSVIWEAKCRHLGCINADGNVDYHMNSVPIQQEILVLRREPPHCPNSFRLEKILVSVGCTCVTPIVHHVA

- binding result: binds
B1: recombinant human IL-17A (ligand)
chain: not shown
